Test results from paper PMC5062570 (Nature Communications, 2016).
Where “and” joins values, the source holds several entries; their conditions need not be identical. Equal entries are not always repeated. Where two headings read alike, the source gives them in different places.

Columns and labels:
[1] = biological target: PF-7802-labelled proteins in ARPE-19 cells (Homo sapiens, UniProt P30050); conditions: protein RPL12 60S ribosomal protein L12, P30050
[2] = biological target: PF-7802-labelled proteins in ARPE-19 cells (Homo sapiens, UniProt Q9ULV4); conditions: for Median SILAC Ratio (Heavy/Light): protein CORO1C Coronin-1C (Q9ULV4)
[3] = biological target: PF-7802-labelled proteins in ARPE-19 cells (Homo sapiens, UniProt Q12797); conditions: protein ASPH Aspartyl/asparaginyl beta-hydroxylase (Q12797)
[4] = biological target: PF-7802-labelled proteins in ARPE-19 cells (Homo sapiens, UniProt P68366); conditions: for Median SILAC Ratio (Heavy/Light): TUBA4A Tubulin alpha-4A chain (P68366)
[5] = biological target: PF-7802-labelled proteins in ARPE-19 cells (Homo sapiens, UniProt Q07065); conditions: protein CKAP4 Cytoskeleton-associated protein 4 (Q07065)
[6] = biological target: T1, PF-7802-labelled proteins in ARPE-19 cells (Homo sapiens, UniProt Q15417); conditions: for Median SILAC Ratio (Heavy/Light): protein CNN3 Calponin-3 (Q15417)
T1 sequence (Q15417 1-329): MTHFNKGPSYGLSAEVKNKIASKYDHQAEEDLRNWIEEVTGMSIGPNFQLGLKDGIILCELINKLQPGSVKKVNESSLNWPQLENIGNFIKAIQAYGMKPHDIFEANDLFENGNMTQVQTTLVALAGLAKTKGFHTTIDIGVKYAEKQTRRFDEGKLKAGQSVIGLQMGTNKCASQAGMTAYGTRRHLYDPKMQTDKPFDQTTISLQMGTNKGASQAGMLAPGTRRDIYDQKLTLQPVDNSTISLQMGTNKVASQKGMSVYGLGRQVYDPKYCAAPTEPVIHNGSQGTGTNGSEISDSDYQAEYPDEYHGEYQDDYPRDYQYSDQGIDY

[7] = biological target: PF-7802-labelled proteins in ARPE-19 cells (Homo sapiens, UniProt P11177); conditions: protein PDHB Pyruvate dehydrogenase E1 component subunit beta, mitochondrial (P11177); replicates in separate columns
[8] = biological target: PF-7802-labelled proteins in ARPE-19 cells (Homo sapiens, UniProt P18206); conditions: VCL Vinculin (P18206)
[9] = biological target: T2, PF-7802-labelled proteins in ARPE-19 cells (Homo sapiens, UniProt P78371); conditions: for Median SILAC Ratio (Heavy/Light): protein CCT2 T-complex protein 1 subunit beta (P78371)
T2 sequence (P78371 1-535): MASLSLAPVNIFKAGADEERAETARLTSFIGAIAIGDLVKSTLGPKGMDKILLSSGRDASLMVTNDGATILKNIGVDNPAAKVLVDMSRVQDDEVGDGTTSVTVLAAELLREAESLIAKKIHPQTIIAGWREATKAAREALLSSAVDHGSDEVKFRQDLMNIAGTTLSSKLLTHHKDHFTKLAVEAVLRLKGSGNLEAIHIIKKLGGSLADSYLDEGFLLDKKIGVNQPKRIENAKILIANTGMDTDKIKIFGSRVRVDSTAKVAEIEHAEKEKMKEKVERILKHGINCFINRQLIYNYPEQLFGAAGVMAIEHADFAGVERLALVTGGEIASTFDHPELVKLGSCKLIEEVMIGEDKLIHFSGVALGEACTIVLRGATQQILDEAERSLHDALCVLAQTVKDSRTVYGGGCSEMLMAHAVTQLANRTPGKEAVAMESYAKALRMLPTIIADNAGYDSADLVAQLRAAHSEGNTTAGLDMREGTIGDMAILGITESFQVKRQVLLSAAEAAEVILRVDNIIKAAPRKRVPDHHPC

[10] = biological target: PF-7802-labelled proteins in ARPE-19 cells (Homo sapiens, UniProt O60506); conditions: SYNCRIP Heterogeneous nuclear ribonucleoprotein Q (O60506)
[11] = biological target: PF-7802-labelled proteins in ARPE-19 cells (Homo sapiens, UniProt Q08170); conditions: SRSF4 Serine/arginine-rich splicing factor 4 (Q08170)
[12] = biological target: PF-7802-labelled proteins in ARPE-19 cells (Homo sapiens, UniProt O75390); conditions: protein CS Citrate synthase, mitochondrial (O75390)
[13] = biological target: T3, PF-7802-labelled proteins in ARPE-19 cells (Homo sapiens, UniProt P11166); conditions: for Median SILAC Ratio (Heavy/Light): SLC2A1 Solute carrier family 2, facilitated glucose transporter member 1 (P11166)
T3 sequence (P11166 1-492): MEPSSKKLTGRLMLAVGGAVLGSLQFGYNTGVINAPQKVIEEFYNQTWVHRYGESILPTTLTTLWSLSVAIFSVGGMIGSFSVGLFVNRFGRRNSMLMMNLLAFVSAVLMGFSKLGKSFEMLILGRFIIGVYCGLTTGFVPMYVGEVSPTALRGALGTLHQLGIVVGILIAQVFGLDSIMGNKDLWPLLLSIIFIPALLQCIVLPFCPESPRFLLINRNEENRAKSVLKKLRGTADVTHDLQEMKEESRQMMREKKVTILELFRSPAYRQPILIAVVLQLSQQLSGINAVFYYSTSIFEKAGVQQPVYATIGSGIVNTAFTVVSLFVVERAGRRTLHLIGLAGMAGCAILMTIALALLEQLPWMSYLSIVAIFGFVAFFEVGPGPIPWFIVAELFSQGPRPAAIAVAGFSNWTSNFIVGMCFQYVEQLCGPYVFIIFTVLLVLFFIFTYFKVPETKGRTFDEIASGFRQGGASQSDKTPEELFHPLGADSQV

[14] = biological target: PF-7802-labelled proteins in ARPE-19 cells (Homo sapiens, UniProt P31040); conditions: SDHA Succinate dehydrogenase [ubiquinone] flavoprotein subunit, mitochondrial (P31040)
[15] = biological target: PF-7802-labelled proteins in ARPE-19 cells (Homo sapiens, UniProt P46776)
[16] = biological target: PF-7802-labelled proteins in ARPE-19 cells (Homo sapiens, UniProt P14866); conditions: protein HNRNPL Heterogeneous nuclear ribonucleoprotein L (P14866); one column per replicate
Sequence of UniProt P14866 (P14866 whole entry): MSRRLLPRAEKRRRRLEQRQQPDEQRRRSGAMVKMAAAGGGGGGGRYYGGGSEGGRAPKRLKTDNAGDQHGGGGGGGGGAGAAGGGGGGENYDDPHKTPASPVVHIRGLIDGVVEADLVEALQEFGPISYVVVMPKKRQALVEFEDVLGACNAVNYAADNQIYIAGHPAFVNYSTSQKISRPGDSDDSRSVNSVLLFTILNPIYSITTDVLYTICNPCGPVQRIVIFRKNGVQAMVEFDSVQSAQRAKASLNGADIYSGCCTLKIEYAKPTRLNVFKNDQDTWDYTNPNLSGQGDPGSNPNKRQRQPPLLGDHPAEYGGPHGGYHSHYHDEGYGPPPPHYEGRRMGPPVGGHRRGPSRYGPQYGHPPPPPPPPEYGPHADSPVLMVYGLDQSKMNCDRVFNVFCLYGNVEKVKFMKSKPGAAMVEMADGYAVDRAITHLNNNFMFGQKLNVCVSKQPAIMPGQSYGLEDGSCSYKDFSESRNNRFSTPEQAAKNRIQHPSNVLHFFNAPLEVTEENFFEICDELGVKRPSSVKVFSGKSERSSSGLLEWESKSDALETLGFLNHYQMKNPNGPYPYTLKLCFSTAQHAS

Sequence of UniProt P18206 (P18206 whole entry): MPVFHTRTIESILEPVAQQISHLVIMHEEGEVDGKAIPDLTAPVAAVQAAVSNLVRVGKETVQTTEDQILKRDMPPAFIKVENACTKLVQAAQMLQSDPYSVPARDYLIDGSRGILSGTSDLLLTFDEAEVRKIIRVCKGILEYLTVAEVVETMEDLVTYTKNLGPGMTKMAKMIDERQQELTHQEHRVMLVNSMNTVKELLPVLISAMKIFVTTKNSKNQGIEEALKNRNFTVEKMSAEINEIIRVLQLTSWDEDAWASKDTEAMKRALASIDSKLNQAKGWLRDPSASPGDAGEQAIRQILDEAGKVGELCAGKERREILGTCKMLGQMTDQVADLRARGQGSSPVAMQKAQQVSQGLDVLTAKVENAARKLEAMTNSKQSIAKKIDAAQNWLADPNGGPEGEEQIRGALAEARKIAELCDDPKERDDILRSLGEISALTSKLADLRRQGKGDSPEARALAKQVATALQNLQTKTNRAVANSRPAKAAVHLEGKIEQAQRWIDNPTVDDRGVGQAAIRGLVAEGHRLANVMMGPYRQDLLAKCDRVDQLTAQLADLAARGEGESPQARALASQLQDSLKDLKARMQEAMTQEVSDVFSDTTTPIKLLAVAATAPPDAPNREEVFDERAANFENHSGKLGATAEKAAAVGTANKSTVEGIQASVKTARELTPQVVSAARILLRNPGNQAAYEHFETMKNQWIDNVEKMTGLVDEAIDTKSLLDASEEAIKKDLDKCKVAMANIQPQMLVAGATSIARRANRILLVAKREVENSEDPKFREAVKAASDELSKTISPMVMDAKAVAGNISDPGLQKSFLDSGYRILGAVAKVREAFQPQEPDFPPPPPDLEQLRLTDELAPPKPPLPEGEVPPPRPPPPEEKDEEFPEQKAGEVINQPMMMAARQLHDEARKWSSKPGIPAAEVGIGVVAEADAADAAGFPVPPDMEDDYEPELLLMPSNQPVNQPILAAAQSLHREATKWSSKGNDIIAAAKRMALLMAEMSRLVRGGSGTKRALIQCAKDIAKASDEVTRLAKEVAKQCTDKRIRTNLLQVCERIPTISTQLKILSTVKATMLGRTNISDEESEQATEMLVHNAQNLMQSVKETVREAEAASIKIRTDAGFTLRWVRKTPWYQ
Sequence of UniProt Q07065 (Q07065 whole entry): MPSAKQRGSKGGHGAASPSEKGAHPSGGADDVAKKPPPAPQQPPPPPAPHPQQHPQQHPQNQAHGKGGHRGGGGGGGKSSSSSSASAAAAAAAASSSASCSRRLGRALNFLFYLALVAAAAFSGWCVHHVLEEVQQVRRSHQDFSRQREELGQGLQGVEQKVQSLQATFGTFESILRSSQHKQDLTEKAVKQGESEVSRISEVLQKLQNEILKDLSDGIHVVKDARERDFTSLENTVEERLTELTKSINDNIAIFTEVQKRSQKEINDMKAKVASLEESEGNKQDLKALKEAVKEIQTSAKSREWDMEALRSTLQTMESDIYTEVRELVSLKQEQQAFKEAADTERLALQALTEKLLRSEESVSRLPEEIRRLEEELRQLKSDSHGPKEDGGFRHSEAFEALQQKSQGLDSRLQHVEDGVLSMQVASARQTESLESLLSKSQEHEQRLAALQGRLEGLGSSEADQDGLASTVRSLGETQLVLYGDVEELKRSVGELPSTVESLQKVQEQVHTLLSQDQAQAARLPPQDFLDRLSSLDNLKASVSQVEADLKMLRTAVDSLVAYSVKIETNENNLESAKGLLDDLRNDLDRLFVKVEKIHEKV
Sequence of UniProt Q12797 (Q12797 whole entry): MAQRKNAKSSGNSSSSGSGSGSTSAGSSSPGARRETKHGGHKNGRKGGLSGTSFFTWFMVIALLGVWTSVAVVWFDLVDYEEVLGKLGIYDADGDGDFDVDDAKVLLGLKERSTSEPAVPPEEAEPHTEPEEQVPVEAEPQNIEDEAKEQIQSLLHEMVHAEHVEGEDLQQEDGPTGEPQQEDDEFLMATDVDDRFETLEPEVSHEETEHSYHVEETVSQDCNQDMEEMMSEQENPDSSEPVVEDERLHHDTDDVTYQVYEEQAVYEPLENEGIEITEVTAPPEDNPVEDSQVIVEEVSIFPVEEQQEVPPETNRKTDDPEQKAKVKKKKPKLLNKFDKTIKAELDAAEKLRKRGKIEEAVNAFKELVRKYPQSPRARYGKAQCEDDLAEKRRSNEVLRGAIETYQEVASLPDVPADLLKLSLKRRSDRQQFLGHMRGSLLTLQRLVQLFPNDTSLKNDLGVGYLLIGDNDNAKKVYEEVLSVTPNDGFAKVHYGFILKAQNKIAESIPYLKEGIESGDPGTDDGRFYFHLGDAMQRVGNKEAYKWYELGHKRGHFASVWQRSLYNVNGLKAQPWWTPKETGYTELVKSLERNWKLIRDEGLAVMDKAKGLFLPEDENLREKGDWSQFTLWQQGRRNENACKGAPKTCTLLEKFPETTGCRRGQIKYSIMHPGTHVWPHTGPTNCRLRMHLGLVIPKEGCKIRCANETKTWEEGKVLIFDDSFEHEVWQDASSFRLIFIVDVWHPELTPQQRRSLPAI
Sequence of UniProt P68366 (P68366 whole entry): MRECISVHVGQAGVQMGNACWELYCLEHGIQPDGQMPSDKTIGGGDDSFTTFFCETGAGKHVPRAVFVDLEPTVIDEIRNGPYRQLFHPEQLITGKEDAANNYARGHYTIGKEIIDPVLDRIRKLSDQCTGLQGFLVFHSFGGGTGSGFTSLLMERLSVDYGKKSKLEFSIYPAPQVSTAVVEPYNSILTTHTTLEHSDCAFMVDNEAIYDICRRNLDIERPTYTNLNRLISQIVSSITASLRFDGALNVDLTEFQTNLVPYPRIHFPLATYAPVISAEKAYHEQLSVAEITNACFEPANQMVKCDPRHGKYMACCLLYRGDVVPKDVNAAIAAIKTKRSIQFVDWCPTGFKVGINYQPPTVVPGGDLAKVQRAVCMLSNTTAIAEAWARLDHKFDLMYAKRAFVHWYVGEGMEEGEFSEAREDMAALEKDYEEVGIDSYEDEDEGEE
Sequence of UniProt Q9ULV4 (Q9ULV4 whole entry): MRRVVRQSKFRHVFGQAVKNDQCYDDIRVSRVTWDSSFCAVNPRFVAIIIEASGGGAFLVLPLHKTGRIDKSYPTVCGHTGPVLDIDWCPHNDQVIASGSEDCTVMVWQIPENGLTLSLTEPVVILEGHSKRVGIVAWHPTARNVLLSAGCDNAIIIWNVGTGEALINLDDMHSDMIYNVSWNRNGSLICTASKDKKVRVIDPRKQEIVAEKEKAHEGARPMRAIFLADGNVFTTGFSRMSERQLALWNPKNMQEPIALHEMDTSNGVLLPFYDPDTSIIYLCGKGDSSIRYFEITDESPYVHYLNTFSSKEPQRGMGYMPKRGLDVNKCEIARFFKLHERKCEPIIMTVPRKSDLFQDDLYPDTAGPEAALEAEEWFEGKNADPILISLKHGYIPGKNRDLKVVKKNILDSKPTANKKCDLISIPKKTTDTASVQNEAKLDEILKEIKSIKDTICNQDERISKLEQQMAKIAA
Sequence of UniProt Q08170 (Q08170 whole entry): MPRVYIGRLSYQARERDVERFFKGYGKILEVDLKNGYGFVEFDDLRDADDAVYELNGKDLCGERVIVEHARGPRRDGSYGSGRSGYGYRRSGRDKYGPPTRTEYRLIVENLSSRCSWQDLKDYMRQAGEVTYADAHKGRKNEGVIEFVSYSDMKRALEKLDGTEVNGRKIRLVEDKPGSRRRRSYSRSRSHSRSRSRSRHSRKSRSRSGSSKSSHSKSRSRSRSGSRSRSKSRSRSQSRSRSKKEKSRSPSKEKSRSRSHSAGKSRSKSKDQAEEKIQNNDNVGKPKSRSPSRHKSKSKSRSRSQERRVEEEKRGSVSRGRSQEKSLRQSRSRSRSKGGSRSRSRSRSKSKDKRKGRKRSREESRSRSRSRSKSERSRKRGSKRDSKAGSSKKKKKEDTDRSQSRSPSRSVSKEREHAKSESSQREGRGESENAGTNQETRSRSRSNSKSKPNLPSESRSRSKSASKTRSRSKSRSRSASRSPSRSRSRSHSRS

SMILES	Median SILAC Ratio (Heavy/Light) [1]	Median SILAC Ratio (Heavy/Light) [2]	Median SILAC Ratio (Heavy/Light) [3]	Median SILAC Ratio (Heavy/Light) [4]	Median SILAC Ratio (Heavy/Light) [5]	Median SILAC Ratio (Heavy/Light) [6]	Median SILAC Ratio (Heavy/Light) [7]	Median SILAC Ratio (Heavy/Light) [8]	Median SILAC Ratio (Heavy/Light) [9]	Median SILAC Ratio (Heavy/Light) [10]	Median SILAC Ratio (Heavy/Light) [11]	Median SILAC Ratio (Heavy/Light) [12]	Median SILAC Ratio (Heavy/Light) [13]	Median SILAC Ratio (Heavy/Light) [14]	Median SILAC Ratio (Heavy/Light) [16]	further results
CNC1CCN(C(=O)C[C@@H](Cc2ccccc2)C(=O)N[C@@H](CSC)C(=O)N[C@@H](CC2CCCCC2)[C@@H](O)C(=O)OC(C)C)CC1 [CP-108671, reference compound]	1.115	1.415	1.437	2.243	1.277 and 0.8671	1.324	1.421	2.042	1.5001	1.127	0.63	1.054	1.156	1.212	0.7965	SILAC ratio (DMSO/CP-108671) ([2]; Q9ULV4 CORO1C Coronin-1C): 0.71; SILAC ratio (DMSO/CP-108671) ([4]; P68366 TUBA4A Tubulin alpha-4A chain): 0.45; SILAC ratio (DMSO/CP-108671) ([6]; Q15417 CNN3 Calponin-3): 0.76; SILAC ratio (DMSO/CP-108671) ([9]; P78371 CCT2 T-complex protein 1 subunit beta): 0.67; SILAC ratio (DMSO/CP-108671) ([13]; P11166 SLC2A1 Solute carrier family 2, facilitated glucose transporter member 1): 0.87; Median SILAC Ratio (Heavy/Light) ([15]; protein RPL27A 60S ribosomal protein L27a, P46776): 1.352
Cc1cc([C@H]2C[C@H]3[C@@H](C)SC(N)=N[C@@]3(c3ccc(F)cc3F)CO2)on1 [PF-9283]	1.292 and 1.34	1.398 and 0.857	1.548 and 0.8167	1.8705 and 1.786	1.279 and 0.7219 and 0.7482	1.3664 and 0.8422 and 1.24	1.1285	1.456 and 1.39 and 1.283	1.3273	0.9772	0.633	1.116	1.381 and 2.28 and 2.213	1.262	0.801 and 0.9309	Median SILAC Ratio (Heavy/Light) [15]: 1.443 and 1.762
